About 31,000 (8.9%) of roughly 350,000 compounds were called active. This list was built around the results that the source calls inconclusive (neither active nor inactive); the mix of calls is not that of the screen. The call rests on the fitted dose curve; in most records, active means well fitted inhibition curve with a large enough effect; inconclusive means small, poorly fitted or top-dose-only effect; inactive means no such curve, though single readings can be large or run the other way. Potencies beside an inconclusive call are fits to weak or partial responses and may not hold up.
These compounds were tested against Histone-lysine N-methyltransferase EHMT2 (Homo sapiens) (UniProt Q96KQ7) (assay: qHTS Assay for Inhibitors of Histone Lysine Methyltransferase G9a). Details: G9a H3K9 monomethylation, AlphaScreen, 2 h; activity, negative = inhibition: at 59 µM (top of the series) unless noted.
Summary of the method: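 Signal arises when biotinylated H3K9 peptide, once monomethylated, bridges streptavidin donor and antibody-captured acceptor beads. Enzyme at 20 nM was preincubated 15 min with test compounds; peptide 500 nM and SAM 20 uM then reacted for 2 h.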
Further: nearly all actives have a fitted effect of over 75% in size.
On the % scale 0 is the no-effect control and ±100 the full control effect; potency means the concentration at half of the fitted maximal effect; tags describe the fitted curve by direction and shape.

UniProt Q96KQ7, sequence (Q96KQ7 whole entry, looked up): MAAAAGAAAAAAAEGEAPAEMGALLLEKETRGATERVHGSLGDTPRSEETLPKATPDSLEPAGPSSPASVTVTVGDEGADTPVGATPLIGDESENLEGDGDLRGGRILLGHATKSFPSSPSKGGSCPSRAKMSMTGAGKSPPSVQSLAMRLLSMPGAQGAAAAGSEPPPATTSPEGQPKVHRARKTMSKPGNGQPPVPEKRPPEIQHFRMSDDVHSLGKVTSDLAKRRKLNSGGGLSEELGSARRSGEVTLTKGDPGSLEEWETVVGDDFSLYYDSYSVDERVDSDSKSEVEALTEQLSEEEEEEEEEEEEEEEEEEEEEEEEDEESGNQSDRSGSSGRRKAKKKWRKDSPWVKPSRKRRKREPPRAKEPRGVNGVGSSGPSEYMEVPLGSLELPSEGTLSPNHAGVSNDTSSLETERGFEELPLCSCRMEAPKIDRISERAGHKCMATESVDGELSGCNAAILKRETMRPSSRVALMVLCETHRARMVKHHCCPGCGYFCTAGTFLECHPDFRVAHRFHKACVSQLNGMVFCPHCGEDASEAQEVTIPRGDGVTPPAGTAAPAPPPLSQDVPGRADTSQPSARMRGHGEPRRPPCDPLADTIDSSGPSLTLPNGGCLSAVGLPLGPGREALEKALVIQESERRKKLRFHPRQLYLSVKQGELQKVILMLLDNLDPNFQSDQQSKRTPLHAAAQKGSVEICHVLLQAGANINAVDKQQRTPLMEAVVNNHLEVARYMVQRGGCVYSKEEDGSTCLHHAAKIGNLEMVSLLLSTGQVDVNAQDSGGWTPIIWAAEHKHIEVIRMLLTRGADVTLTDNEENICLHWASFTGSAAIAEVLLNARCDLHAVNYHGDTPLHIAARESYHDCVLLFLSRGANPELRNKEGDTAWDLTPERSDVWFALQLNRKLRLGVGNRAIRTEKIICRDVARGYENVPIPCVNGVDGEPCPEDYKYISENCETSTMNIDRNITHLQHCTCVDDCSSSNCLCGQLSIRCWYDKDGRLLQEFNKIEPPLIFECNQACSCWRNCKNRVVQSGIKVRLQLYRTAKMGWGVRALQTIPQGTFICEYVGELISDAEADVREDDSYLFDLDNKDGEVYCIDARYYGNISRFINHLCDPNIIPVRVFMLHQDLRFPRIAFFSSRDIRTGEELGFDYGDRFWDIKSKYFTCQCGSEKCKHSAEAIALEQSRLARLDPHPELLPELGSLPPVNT

SMILES | Potency | activity, negative = inhibition
COc1ccc(CC(=O)NNC(=O)c2ccco2)cc1 | inconclusive: 7.94 µM [inhibitor, partial curve, poor fit] | 
COC(=O)CNC(=O)CN1C(=O)N(c2ccccc2)C(N(O)C(=O)Nc2ccccc2)C1(C)C (stereo unspecified) | inconclusive: 39.8 µM [inhibitor, partial curve, poor fit] | 
CCOc1ccc(C(c2c(NC(=O)c3ccccc3)sc(C)c2C)N2CCN(C)CC2)cc1 (stereo unspecified) | inconclusive: 31.6 µM [inhibitor, single point] | 
Cc1cc(Br)ccc1SCC(=O)OCC(=O)NC(C)c1ccccc1 (stereo unspecified) | active: 39.8 µM | 
CCOc1ccc(-n2nnnc2SCC(=O)Nc2ccc(NC(C)=O)cc2)cc1 |  | inactive: -2.97% [at 102 µM]
CCCCCCCC(=O)N/N=C/c1ccc([N+](=O)[O-])o1 | inconclusive: 50.1 µM [inhibitor, partial curve] | 
Cc1nnc2c3ccccc3nc(N3CCN(c4ccccc4)CC3)n12 |  | inactive: -1.07%
O=C(/C=C/c1ccc([N+](=O)[O-])s1)N1CCCCC1 |  | inactive: -6.49% [at 102 µM]
COCCNC(=O)C(=O)N/N=C(\C)CC(=O)Nc1ccc2c(c1)OCO2 | inconclusive: 31.6 µM [inhibitor, single point] | 
CCOc1ccc2nc(NC(=O)CSc3nc4ccccc4c(=O)n3Cc3ccco3)sc2c1 | inconclusive: 0.708 µM [inhibitor, full curve, poor fit] | 
CS(=O)(=O)N1N=C(c2cccs2)CC1c1ccco1 (stereo unspecified) |  | inactive: 6.28% [at 12.7 µM]
COc1ccc(/C=C2/SC(=S)N(CCCC(=O)Nc3cccc(O)c3)C2=O)cc1 | inconclusive: 89.1 µM [inhibitor, single point] | 
COc1ccc(N2CCN(C(=O)CSc3nnc(NC(=O)C4CC4)s3)CC2)cc1 | inconclusive: 44.7 µM [inhibitor, partial curve, poor fit] | 
CC(=O)NS(=O)(=O)c1ccc(NC(=O)c2cc(-c3ccc(C)cc3)nc3ccccc23)cc1 | inconclusive: 39.8 µM [inhibitor, single point] | 
COc1ccc(-c2ccc(CNCCCN3CCOCC3)o2)cc1Cl | active: 50.1 µM | 
O=C(CCc1ccccc1)N(Cc1cccnc1)c1nc2ccc(F)cc2s1 |  | inactive: 3.83%
COCCOC(=O)c1c(N)n(CCCN2CCOCC2)c2nc3ccccc3nc12 | inconclusive: 79.4 µM [inhibitor, single point] | 
COc1cccc(NC(=O)CN(C)C(=O)CCN2C(=O)C3CC=CCC3C2=O)c1 (stereo unspecified) |  | inactive: -1.29% [at 102 µM]
O=C(Cn1cc(SCc2ccc(F)cc2)c2ccccc21)N1CCCCCC1 |  | inactive: 6.01%
CCN(CC)CCNC(=O)c1c(O)c2cc(OC)c(OC)cc2[nH]c1=O | inconclusive: 39.8 µM [inhibitor, single point] | 
CCCCC(CC)COP(=O)(OCC(CC)CCCC)OCC(CC)CCCC (stereo unspecified) |  | inactive: 5.89% [at 0.501 µM]
O=C1c2ccc([N+](=O)[O-])cc2S(=O)(=O)N1Cc1ccccc1 | active: 11.2 µM | 
CC(C)C[C@@H](C(=O)NCc1ccco1)N1C(=O)N2CCc3c([nH]c4ccccc34)[C@@]2(C)C1=O | inconclusive: 89.1 µM [inhibitor, single point] | 

SMILES | Potency | activity, negative = inhibition
CCCn1nnc(NC(=S)NC(=O)c2ccc(-c3ccc(Br)cc3)o2)n1 | inconclusive: 50.1 µM [inhibitor, partial curve, poor fit] | 
COc1ccc(C(=O)CSc2nc(C)cc(C)n2)cc1[N+](=O)[O-] |  | inactive: 14.2%
CC(=O)Nc1ccccc1OC(C)C(=O)NC(C)c1ccc(F)cc1 (stereo unspecified) |  | inactive: 5.82%
CC(Sc1nc2ccccc2c(=O)n1CC1CCCO1)C(=O)Nc1ccc(S(N)(=O)=O)cc1 (stereo unspecified) |  | inactive: -44.9%
CCOc1ccc(NC(=O)c2cnn(-c3ccccc3)c2-n2cccc2)cc1 |  | inactive: -16.2%
CCCCSc1nnc(-c2ccc(NC(C)=O)cc2)n1C | inconclusive: 7.08 µM [inhibitor, partial curve, poor fit] | 
CC(C)(C)c1ccc(Oc2ccc(NC(=O)c3ccccc3C(=O)O)cn2)cc1 | active: 56.2 µM | 
COc1cccc(NC(=O)c2nc(SC)ncc2Cl)c1 |  | inactive: -15% [at 102 µM]
CC1(C)CC(=O)C(=CN2CCN(C(=O)c3ccco3)CC2)C(=O)C1 | inconclusive: 39.8 µM [inhibitor, single point] | 
CCc1cccc(NC(=O)Cn2c(C(=O)OC)cc3sc(Cl)cc32)c1 |  | inactive: -0.725%
Cc1ccc(-n2c(SCc3ccccc3F)nc3[nH]ncc3c2=O)cc1Cl |  | inactive: -28.6%
COc1cc(C(=O)O)nc(OC)n1 | inconclusive: 28.2 µM [inhibitor, single point] | 
CCOC(=O)c1ccc(-c2ccc(C=O)o2)cc1 | inconclusive: 50.1 µM [inhibitor, partial curve] | 
CCc1ccccc1NC(=O)CC1S/C(=N\c2nccs2)N(CC)C1=O (stereo unspecified) | inconclusive: 39.8 µM [inhibitor, single point] | 
CNC[C@@H](O)[C@@H](O)[C@H](O)[C@H](O)CO |  | inactive: 13.5%
CCCCOc1ccc(C2c3c(oc4ccc(C)cc4c3=O)C(=O)N2CCCN(C)C)cc1OCC (stereo unspecified) |  | inactive: -36.1%
CC12CC3(C)CC(C)(C1)CC(C(=O)Nc1nn[nH]n1)(C2)C3 | active: 35.5 µM | 
S=c1[nH]ncn1/N=C/c1ccc(Br)cc1 | active: 1.26 µM | 
O=C1CC[C@H](C(=O)N[C@@H]2C[C@H]2c2ccccc2)N1 |  | inactive: 0.0318% [at 12.7 µM]
CCOC(=O)N1CCc2c(sc3c2C(=O)NC(c2ccc(N(C)C)cc2)N3)C1 (stereo unspecified) | inconclusive: 22.4 µM [inhibitor, partial curve, poor fit] | 
COC(=O)c1cc(-c2cc(OC)ccc2OC)nc2c1c(=O)n(C)c(=O)n2Cc1ccccc1 | inconclusive: 89.1 µM [inhibitor, partial curve, poor fit] | 
COCCN(CCOC)S(=O)(=O)c1ccc(C(=O)Nc2sc3c(c2C(=O)OC)CCN(C)C3)cc1 | inconclusive: 15.8 µM [inhibitor, partial curve, poor fit] | 
COc1ccccc1/C=C/C(=O)c1c2c(c(C)[nH]c1=O)CCCC2 | inconclusive: 8.91 µM [inhibitor, single point] | 
